The text below walks through data of ChEMBL document CHEMBL4888484, “Replenishing the malaria drug discovery pipeline: Screening and hit evaluation of the MMV Hit Generation Library 1 (HGL1) against asexual blood stage Plasmodium falciparum ,using a nano luciferase reporter read-out” (2022).

The whole screen tested about 150,000 compounds, of which about 540 (0.36%) showed an effect of 50% or more. The list shows a part of the results.

The assay deals with Plasmodium falciparum. Kind of assay: Primary screen in NF54 nanoGlo assay, in single point, at 2uM, 72h; a lower Z score goes with more inhibition. The format is functional, Erythrocyte. Particulars: timepoint 72 hour.
As to `Cc1nnc2cc(N3CCN(S(=O)(=O)c4ccc(Br)cc4)CC3)cnn12`, the % Inhibition (commonly the drop in the measured response relative to a control, in per cent) was -1% and the Z score is on record as 0.12.

As to `COCCCNC(=O)CN(C)c1c(Cl)cccc1C#N`, the “% Inhibition” value was -15% and the Z score was found to be 2.86.

Turning to `CCS(=O)(=O)N1CCC[C@@]2(CCC(=O)N(Cc3ccncc3)C2)C1`, the “% Inhibition” value is -1% and the Z score is given as 0.27.

Take `O=S1(=O)C[C@H](O)[C@@H](n2ccnc2-c2ccccc2Cn2cccn2)C1`: the “% Inhibition” value is -10% and the Z score is 1.62.

Regarding `Cc1ccc(C2=NC3(CCN(CC(=O)Nc4ccc(Br)cc4F)CC3)NC2=O)cc1C`, the “% Inhibition” value is given as -11% and the Z score is listed as 1.55.

Take `CCOc1cc(N(C)[C@@H](C)c2cnn(C)c2)ncn1`: the “% Inhibition” value is on record as 3% and the Z score is -0.41.

For the compound `COc1cnc([C@@H]2CCCN2Cc2cn(C(C)(C)C)nn2)[nH]c1=O`, the “% Inhibition” value amounted to 25% and the Z score was -3.18.

For the compound `CC(C)(C)CC(C)(C)NS(=O)(=O)Cc1ccccc1`, the “% Inhibition” value is on record as -8% and the Z score was 1.57.

Take `O[C@H]1Cc2ccccc2[C@H]1Nc1cc(-n2ccnc2)ncn1`: the “% Inhibition” value is reported as -1% and the Z score came out at 0.2.

Take `COC1CCN(S(=O)(=O)NCc2ccc3sccc3c2)CC1`: the “% Inhibition” value is listed as -2% and the Z score worked out at 0.28.

Regarding `COc1ccccc1CNC(=O)c1ccc(-n2cncn2)nn1`, the “% Inhibition” value is -22% and the Z score is recorded as 2.78.

Take `CCC(C)C(=O)N1CCCC(c2nc(-c3ncc[nH]3)no2)C1` (stereo unspecified): the “% Inhibition” value is -15% and the Z score turned out to be 1.33.

On to `CC(=O)c1nn(-c2ccc(OC(F)(F)F)cc2)nc1Nc1ccc(Cl)cc1`, for which the “% Inhibition” value was -11% and the Z score was 1.3.

`CCn1cc(C(=O)NC(C)(C)Cc2ccc(Cl)cc2Cl)nn1`: the “% Inhibition” value was -12% and the Z score came out at 1.89.

Regarding `COc1ccc(CN2CC[C@H](CNC(=O)c3ccc[nH]3)C2)cc1O`, the “% Inhibition” value was -5% and the Z score stood at 0.93.

As to `O=C(Cn1cccn1)NCc1cccnc1-n1cnc2ccccc21`, the “% Inhibition” value is 15% and the Z score is recorded as -1.96.

Turning to `O=C(NC[C@H]1CCCO1)/C(=C\c1cccc(Oc2ccccc2)c1)NC(=O)c1ccc(Cl)cc1`, the “% Inhibition” value is recorded as -4% and the Z score is 0.55.

With `CCC1(CCC(=O)NC(Cc2ccccc2)c2ccccc2)CCC(=O)N1` (stereo unspecified), the “% Inhibition” value is given as -3% and the Z score is reported as 0.5.

`CS(=O)(=O)CCn1cnc(-c2ccccc2)c1CCc1ccccc1`: the “% Inhibition” value is given as -2% and the Z score is recorded as 0.4.

For the compound `CC1CCCCC1OCCNCCn1cccn1` (stereo unspecified), the “% Inhibition” value was -5% and the Z score turned out to be 0.7.

Turning to `CC[C@H](NC(=O)CCn1nccc1C)c1nc(C)no1`, the “% Inhibition” value is -6% and the Z score came to 1.18.

As for `COc1cc2c(cc1-c1cn([C@H]3CCNC3=O)nn1)OCO2`, the “% Inhibition” value is -19% and the Z score came to 1.66.

On to `CS(=O)(=O)CC(=O)N(Cc1ccncc1)C1CC1`, for which the “% Inhibition” value is on record as -12% and the Z score came out at 1.2.

With `CCc1n[nH]c(-c2nc(-c3ccccn3)nn2C2CCN(C)CC2)c1C`, the “% Inhibition” value is -11% and the Z score was 1.68.

In the case of `CCCCCNC(=O)CCn1ccnc1`, the “% Inhibition” value was 3% and the Z score is listed as -0.29.

Turning to `Cc1cc(C(=O)N2CCN(c3ccccc3F)CC2)nc2ccnn12`, the “% Inhibition” value came to 3% and the Z score was -0.55.

As to `O=C(Nc1ccc(CCN2CCCC2)cc1)c1ncccc1F`, the “% Inhibition” value is recorded as -14% and the Z score is listed as 2.33.

On to `CC(C)(C)c1nccc(NC2CC3CCC2O3)n1` (stereo unspecified), for which the “% Inhibition” value is recorded as -13% and the Z score stood at 2.13.

As for `c1cc(CN[C@H]2CCOC3(CCOCC3)C2)cc(N2CCCC2)c1`, the “% Inhibition” value is -11% and the Z score is 1.53.

Regarding `CC(C)c1cc(C(=O)N2C[C@@H]3CC[C@H]2CN(CCCc2ccccc2)C3)[nH]n1`, the “% Inhibition” value is on record as -10% and the Z score is 0.98.

For the compound `C[C@@H](CN1CCCC1=O)NC(=O)c1cnc2c(c1)ncn2C`, the “% Inhibition” value is -4% and the Z score is given as 0.53.

For `Cc1ccc(Oc2cccc(C(=O)Nc3cnc(-n4nc(C)c(C)c4C)nc3)c2)nn1`, the “% Inhibition” value turned out to be 1% and the Z score was -0.13.

For the compound `O=C(CN1CCCc2nc(-c3ccncc3)ncc2C1=O)NCc1ccco1`, the “% Inhibition” value is reported as -6% and the Z score was 1.02.

In the case of `O=C(NCC1CCc2ccccc21)N1CCCC(C2CCCCO2)C1` (stereo unspecified), the “% Inhibition” value is on record as -8% and the Z score came to 0.82.

Consider `Cn1cnc(CNC(=O)[C@H]2CC2(C)C)n1`, for which the “% Inhibition” value is -14% and the Z score was 1.48.

`COCC1(CNC(=O)c2cc(F)cc(C#N)c2)CCC1`: the “% Inhibition” value is reported as -14% and the Z score worked out at 1.42.

With `O=C(NCCS(=O)(=O)N1CCN(c2cccc(Cl)c2)CC1)c1cccs1`, the “% Inhibition” value was 23% and the Z score is reported as -2.9.

On to `CCC(=O)N1CCC(Cc2n[nH]c(C(C)C)n2)CC1`, for which the “% Inhibition” value is given as -9% and the Z score is 1.37.

Consider `COc1cccc(-n2cnc3cc(C(=O)NCc4cccnc4)ccc3c2=O)c1`, for which the “% Inhibition” value is reported as -8% and the Z score worked out at 1.08.

Regarding `Cc1cccc(NC(=O)Nc2ccccc2-c2cc3ccccc3[nH]2)c1`, the “% Inhibition” value is on record as -10% and the Z score was found to be 1.52.

On to `CCn1nccc1-c1cnc2nc(C)nn2c1`, for which the “% Inhibition” value is given as -6% and the Z score amounted to 0.88.

Turning to `Cc1nn(C)c(Cl)c1CN1CCCC[C@@H]1Cn1cncn1`, the “% Inhibition” value is -6% and the Z score came to 0.7.

As for `Cc1cccc(S(=O)(=O)N2C[C@H](c3cn(C)cn3)[C@@H](N)C2)c1F`, the “% Inhibition” value was 0% and the Z score is on record as 0.09.
